# Laboratory results as given in PubChem BioAssay (Tox21).
# The inconclusive results got no clear call from the source; some entries with a clear call stand among them for comparison. Potencies of inconclusive entries are left out as doubtful fits. Active and inactive are the calls of the source. Calls come from the whole dose curve; as a rule, active = well fitted inhibition curve with a large enough effect in the repeat runs; inconclusive = weak or mixed curves, or effect the other way; inactive = no such curve, though single readings can be large or run the other way.
# Molecular target: Nuclear receptor ROR-gamma (Homo sapiens) (UniProt P51449)
# Assay: qHTS assay to identify small molecule antagonists of the retinoid-related orphan receptor gamma (ROR-gamma) signaling pathway (AID 1159521; note: nearly all actives have a fitted effect of over 50% in size)
# Details: Tet-on RORgamma CHO cells, RORE-luciferase, 16 h; series mostly up to 92.4 µM
# Description: U.S. Tox21 Program National Center for Advancing Translational Sciences [NCATS] NIH Chemical Genomics Center [NCGC] U.S. Environmental Protection Agency [EPA] National Institutes of Environmental Health Sciences [NIEHS] National Toxicology Program [NTP] U.S. Food and Drug Administration [FDA] Tox21 Assay Overview: Nuclear steroid hormone receptors are involved in many biological processes including inflammatory responses, cell proliferation, and apoptosis. Environmental factors or compounds disrupting these nuclear receptor pathways and gene expression may promote susceptibility to immunotoxicants and autoimmune diseases. One important group of these expression factors are the retinoid-related orphan receptors. To assess compounds that may interfere with the retinoid-related orphan receptor gamma (ROR-gamma) transcription factor, a cell-based luciferase assay was used. The CHO cell-based assay utilizes a TET-inducible ROR expression factor and ROR response element-LUC reporter gene. Reporter gene activity was induced using Doxycycline Hyclate and measured after 16 hr incubation. Tet-on ROR gamma CHO cells were used to screen against the Tox21 10K compound library for ROR gamma antagonists by quantification of decreased reporter gene activity in terms of decreased luminescence.
# Tox21 Assay Protocol Summary: Tet-on ROR gamma CHO cells were dispensed at 1,000 cells in 4 uL of culture medium per well into white wall/solid bottom 1536-well plates using a Multidrop Combi (Thermo Scientific, Waltham, MA) dispenser. Following incubation at 37 C and 5% CO2 for 4 hr, 23 nL of compounds dissolved in DMSO, positive controls or DMSO only were transferred by a Pintool station (Kalypsys, San Diego, CA) and after 2 hr incubation at 37 C, one ul of 1 uM (final concentration) of Doxycycline Hyclate was added to all the wells by using a Flying Reagent Dispenser (FRD) (Aurora Discovery, San Diego, CA). After 16 hr incubation at 37 C and 5% CO2, 5 uL of ONE-Glo reagent (Promega Corporation, Madison, WI) was added to each assay plate using FRD. After 30 min incubation at room temperature, luminescence was quantified on a ViewLux plate reader (Perkin Elmer, Waltham, MA).
# Potency is the fitted concentration of half-maximal effect; tags give direction and shape of the fitted curve.
row,Structure (SMILES),Potency
1,O=c1[nH]c(Cl)c(Cl)cc1Cl,"inconclusive [inhibitor, partial curve, poor fit]"
2,CCOP(=S)(OCC)Oc1ccc(S(C)=O)cc1 (stereo not given),inactive
3,CNC(=O)Oc1c(C(C)(C)C)cc(C)cc1C(C)(C)C,"inconclusive [inhibitor, partial curve, poor fit]"
4,O=CC=O,inactive
5,c1cc[n+]2c(c1)-c1cccc[n+]1CC2,"inconclusive [inhibitor, partial curve, poor fit]"
6,COCC(=O)N(c1c(C)cccc1C)C(C)C(=O)OC (stereo not given),"inconclusive [inhibitor, single point]"
7,C1CCC(C2CCCCC2)CC1,"inconclusive [inhibitor, partial curve, poor fit]"
8,C=C(Cl)Cl,inactive
9,O=C(N[C@H]1CN2CCC1CC2)c1ccc2c(c1)OCCO2,inactive
10,CNC(=O)Oc1cc(C)cc(C(C)C)c1,"inconclusive [inhibitor, single point]"
11,C[N+]1(C)[C@@H]2CC[C@H]1CC(OC(=O)C(CO)c1ccccc1)C2 (stereo not given in full),"inconclusive [inhibitor, single point]"
12,Clc1ccc(C2(Cn3cncn3)CC(Br)CO2)c(Cl)c1 (stereo not given),"inconclusive [inhibitor, partial curve]"
13,CCCCc1c(C)nc(NCC)nc1OS(=O)(=O)N(C)C,"inconclusive [inhibitor, partial curve]"
14,C[C@]12CC[C@H]3[C@@H](CCC4=CC(=O)CC[C@@H]43)[C@@H]1CC[C@@H]2OC(=O)CCC1CCCCC1,"inconclusive [inhibitor, partial curve]"
15,CCCSC(=O)N(CCC)CCC,inactive
16,CCOP(=S)(OCC)SCCSCC,"inconclusive [inhibitor, single point]"
17,O=NN(CCO)CCO,"inconclusive [inhibitor, full curve, poor fit]"
18,CC(C)(COCC1CO1)COCC1CO1 (stereo not given),"inconclusive [inhibitor, single point]"
19,CCOP(=S)(OCC)SCSc1ccc(Cl)cc1,inactive
20,CCC1COC(Cn2cncn2)(c2ccc(Cl)cc2Cl)O1 (stereo not given),"inconclusive [inhibitor, partial curve]"

row,Structure (SMILES),Potency
1,NCC1(CC(=O)O)CCCCC1,inactive
2,CC(O)CCl (stereo not given),inactive
3,CCNc1nc(Cl)nc(NC(C)(C)C)n1,inactive
4,ClCC(Cl)(Cl)Cl,"inconclusive [inhibitor, single point]"
5,Cc1cnc[nH]1,"inconclusive [inhibitor, partial curve, poor fit]"
6,CNCC(=O)c1ccc(O)c(O)c1,"inconclusive [inhibitor, single point]"
7,N#Cc1ccc(N(CC(N)=O)CC(F)(F)F)cc1C(F)(F)F,"inconclusive [inhibitor, partial curve, poor fit]"
8,CC(C)(C)NCC(O)c1cc(Cl)c(N)c(Cl)c1 (stereo not given),"inconclusive [inhibitor, single point]"
9,NC(=S)C(N)=S,inactive
10,O=C(Cl)c1ccccc1F,"inconclusive [inhibitor, single point]"
11,CCCCN(CCCC)C(=S)[S-].CCCCN(CCCC)C(=S)[S-].[Ni+2],"inconclusive [inhibitor, single point]"
12,CCCC[N+]1(C)CCCC1 (tested in a mixture with another compound),"inconclusive [inhibitor, full curve, poor fit]"
13,COc1ccc(-c2ccccc2)cc1NNC(=O)OC(C)C,"inconclusive [inhibitor, single point]"
14,ClC1=C(Cl)[C@]2(Cl)[C@@H]3[C@@H](Cl)[C@H](Cl)C[C@@H]3[C@@]1(Cl)C2(Cl)Cl,inactive
15,Cc1ccccc1CO[C@@H]1C[C@@]2(C(C)C)CC[C@]1(C)O2,"inconclusive [inhibitor, single point]"
16,CC(C)[N+](=O)[O-],"inconclusive [inhibitor, full curve, poor fit]"
17,CCCCC(=O)Cl,inactive
18,CCCCCCCCP(=O)(O)O,inactive
19,CCOS(C)(=O)=O,"inconclusive [inhibitor, full curve, poor fit]"
20,C=CCBr,"inconclusive [inhibitor, full curve, poor fit]"
